PMC4336329 (PLoS ONE, 2015)
Among all 310,000 compounds or so, about 2,200 (0.71%) showed an effect of 50% or more. The effect is printed as a negative number. This is one part of the list.

These compounds were tested against human ether-à-go-go-related gene (hERG) potassium channel (human, UniProt Q12809) (assay: primary screen, population patch clamp on CHO cells stably expressing hERG).
Sequence of human ether-à-go-go-related gene (hERG) potassium channel (Q12809 whole entry, looked up): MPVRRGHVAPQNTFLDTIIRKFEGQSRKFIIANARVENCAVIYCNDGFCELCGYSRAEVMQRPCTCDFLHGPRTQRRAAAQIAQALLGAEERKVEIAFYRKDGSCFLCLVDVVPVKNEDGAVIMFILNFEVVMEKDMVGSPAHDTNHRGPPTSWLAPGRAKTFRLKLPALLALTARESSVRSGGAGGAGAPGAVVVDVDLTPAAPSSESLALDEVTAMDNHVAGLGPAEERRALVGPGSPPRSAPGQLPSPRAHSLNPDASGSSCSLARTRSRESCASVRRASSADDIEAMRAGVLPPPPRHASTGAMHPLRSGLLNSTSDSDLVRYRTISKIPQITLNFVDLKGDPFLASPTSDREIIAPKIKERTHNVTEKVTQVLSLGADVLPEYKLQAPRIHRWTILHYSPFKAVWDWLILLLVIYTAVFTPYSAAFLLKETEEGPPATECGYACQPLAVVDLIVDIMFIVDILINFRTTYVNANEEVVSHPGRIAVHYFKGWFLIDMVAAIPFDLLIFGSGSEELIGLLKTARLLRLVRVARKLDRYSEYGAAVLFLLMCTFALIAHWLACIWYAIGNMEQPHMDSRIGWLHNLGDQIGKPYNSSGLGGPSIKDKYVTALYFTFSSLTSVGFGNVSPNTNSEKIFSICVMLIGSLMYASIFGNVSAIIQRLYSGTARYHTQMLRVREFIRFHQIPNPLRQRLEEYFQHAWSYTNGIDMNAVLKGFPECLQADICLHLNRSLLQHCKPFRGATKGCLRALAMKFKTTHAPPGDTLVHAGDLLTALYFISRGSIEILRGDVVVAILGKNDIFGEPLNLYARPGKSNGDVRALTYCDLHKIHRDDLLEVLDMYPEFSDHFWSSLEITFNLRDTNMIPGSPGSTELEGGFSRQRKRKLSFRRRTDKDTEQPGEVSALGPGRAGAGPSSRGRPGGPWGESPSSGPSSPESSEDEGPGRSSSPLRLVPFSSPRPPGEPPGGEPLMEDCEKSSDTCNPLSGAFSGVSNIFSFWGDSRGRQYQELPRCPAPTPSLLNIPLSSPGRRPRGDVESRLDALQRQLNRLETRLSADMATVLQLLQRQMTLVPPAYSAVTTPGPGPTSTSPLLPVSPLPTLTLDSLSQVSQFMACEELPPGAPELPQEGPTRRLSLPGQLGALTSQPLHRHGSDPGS

SMILES | hERG current change (%, negative = inhibition) at 1uM [%]
CCNc1nc(N)nc(Oc2ccc(C(=O)OC)cc2)n1 | 14.8
Cc1cccc(CSc2ccc(-c3cccs3)nn2)c1 | 12.5
CNC(=S)N1CCN(c2ccc(Cl)c(Cl)c2)CC1 | 11.1
Cc1cc(OCC(O)CN(C)C(=O)C(C)Oc2ccccc2)ccc1Cl (centres unmarked) | 13.5
Cc1cccc(CSc2ncnc3nc[nH]c23)c1 | 6.73
CCc1ccccc1NC(=O)Nc1ccc(F)cc1 | 3.13
Cc1cc2ccccn2c1C(=O)c1nc(NCc2ccco2)ncc1Cl | 14.5
CCCn1c(COc2ccccc2)nc2ccccc21 | 5.5
Cc1ccc(CS(=O)Cc2ccc(C(=O)N3CCN(c4ccccn4)CC3)o2)cc1 (centres unmarked) | 3.2
c1ccc(-c2cncn2-c2ccccc2)cc1 | 2.43
O=C(Nc1nc2c(s1)CCCC2)c1cccs1 | 6.91
On1c(-c2ccccc2Cl)nc2ccccc21 | 9.77
CC(C)(C)c1ccc(N2C(=O)CC(C/C=C/c3ccccc3)C2=O)cc1 (centres unmarked) | 12.1
Cc1cccc(C)c1OCc1nc2ccccc2[nH]1 | -2.81
CCN(CC)c1ccc(/C=C/C(=O)C2C(=O)C=C(C)OC2=O)cc1 (centres unmarked) | 2.77
CCOC(=O)c1c(NC(=O)c2ccc(N3C(=O)[C@@H]4[C@H](C3=O)[C@H]3C=C[C@@H]4C3)cc2)sc2c1CC(C)CC2 (some centres unmarked) | 14.2
CSC(=NC#N)N1CCN(c2cccc(Cl)c2)CC1 | -0.195
COc1ccc(-c2cc(C(=O)NCc3ccco3)c3ccccc3n2)c(OC)c1 | 9.25
Cc1ccc(N=Nc2c(C)[nH][nH]c2=O)c(C)c1 | 11.4
CCOc1ccc(S(=O)(=O)Nc2nc3ccccc3nc2-n2ccc(=NC(=O)c3cccs3)cc2)cc1 | 13.8

SMILES | hERG current change (%, negative = inhibition) at 1uM [%]
Nc1ccccc1SC(C[N+](=O)[O-])c1ccccc1 (centres unmarked) | 12
CC(Sc1nc2ccccc2c(=O)n1CCc1ccc(S(N)(=O)=O)cc1)C(=O)NC(N)=O (centres unmarked) | 12.3
Cc1ccc2cc(CN(Cc3ccco3)C(=O)c3ccco3)c3nnnn3c2c1 | 8.58
CCOc1ccc(C2NC(=O)NC(c3ccccc3)=C2C(C)=O)cc1OC (centres unmarked) | 14.7
Cc1ccc(S(=O)(=O)n2nc(OC(=O)c3ccccc3C)cc2N)cc1 | 12.9
COc1ccc(/C=C(/C#N)C(=O)Nc2ccc(C)cc2C)cc1C(=O)O | 14.9
Cc1cccc(NC(=O)CSCC(=O)N(C)Cc2ccc(Cl)c(Cl)c2)c1 | 10.7
Cc1ccc(Cl)cc1N1CCN(C(=O)c2ccc(NS(=O)(=O)c3c(C)noc3C)cc2)CC1 | 16.7
CCN(CC)S(=O)(=O)c1ccc(N2CCN(c3ccccc3OC)CC2)c(N)c1 | 16.2
C/C(=C/c1ccccc1)C(=O)N1CCN(c2ccccc2F)CC1 | 9.85
CCCCCCCCCOC(=O)C(CC(=O)O)N1CCOCC1 (centres unmarked) | 6.42
Cc1nc(N)nc(OCC(F)(F)C(F)F)c1Br | 7.01
COc1ccc(C(=O)Nc2ccc(F)cc2F)cc1 | -0.387
COC(=O)c1sccc1NC(=O)Nc1cccc(F)c1 | 9.69
COc1ccccc1C(=O)NC(=O)COC(=O)c1nc2nc(C)cc(C)n2n1 | 15.7
CCCN1CCN(c2ccc(S(N)(=O)=O)cc2[N+](=O)[O-])CC1 | -11
CCOC(=O)N1CCN(Cc2nc(N)nc(Nc3ccc(Cl)cc3)n2)CC1 | -22.7
O=S(=O)(c1cccc(F)c1)N1CCC(CO)(Cc2cccc(F)c2)CC1 | -24.8
O=C(COC(=O)C1C2CC3OC(=O)C1C3C2)Nc1ccc(Br)cc1 (centres unmarked) | 6.73
CN1C(=O)NC(NC(=O)C2CCCCC2)(C(F)(F)F)C1=O (centres unmarked) | 9.52

SMILES | hERG current change (%, negative = inhibition) at 1uM [%]
N#Cc1c2ccccc2nc2ccccc12 | 9.93
O=C(Nc1ccc(Cl)cc1)Nc1ccc(S(=O)(=O)Nc2ncccn2)cc1 | 9.16
Oc1cc2c(cc1O)C1c3ccc(O)c(O)c3OCC1(O)C2 (centres unmarked) | 14
Cn1cnnc1SCc1ccccc1 | 4.5
O=C(N/N=C/c1cccs1)c1ccc(NC(=O)c2ccccc2Cl)cc1 | 9.41
O=C(Nc1ccc(C(F)(F)F)cc1)c1ccccc1-n1cnnn1 | 2.21
O=C1c2cccc(Cl)c2C(=O)N1c1ccccn1 | 15.5
COc1ccc(NC(=O)CCSc2ccc(C)cc2)cc1 | 0.943
Br.Cc1nc(-c2ccc(C(=O)O)cc2)cs1 | 13.2
CC(=O)c1cc2c(cc1NC(=O)CN1CCCCC1C)OCO2.O=C(O)C(=O)O (centres unmarked) | 6.36
COC(=O)C1CN(C(=O)C(C)Oc2ccc(C)c(C)c2)c2ccccc2O1 (centres unmarked) | 0.293
COc1cccc(NC(=O)CSc2nnc(COc3ccc4c(c3)CCCC4)o2)c1 | 10.9
CCOC(=O)c1c(Nc2ccccc2N)cc(C)nc1C | -6.12
CCCN(CCC)C(=O)c1cc2c(=O)[nH]c3ccc(C)cc3c2s1 | 4.93
O=C(CCC(=O)OCc1cccc([N+](=O)[O-])c1)Nc1ccc(F)cc1 | 5.58
COC(=O)C1=C(C)N(CCCC(=O)O)C(=O)NC1c1ccc([N+](=O)[O-])cc1 (centres unmarked) | 9.22
COC(=O)c1cc(S(=O)(=O)Nc2c(C)cccc2C)cn1C | 7.76
CCCCN(Cc1ccccc1)c1ncnc2nc[nH]c12 | 9.29
OCCC1CN(Cc2cccn2-c2ccccn2)CCN1C1CCCCC1 (centres unmarked) | -15.6
